{"source": "patent US20240101686A1", "about": "(SIMCERE ZAIMING PHARMACEUTICAL, published 2024)", "binders": {"B1": {"name": "S008-NB148-13 (Fc fusion)", "chain": "EVQVVESGGGLVQPGGSLRLSCAASDDISSIYTMAWYRQAPGKQRELVALVTPGGGTNYADSVKGRFTISRDNAKNTVYLQMNSLKPEDTAVYYCNARHRVTGFAYWGQGTQVTVSS[human IgG1 Fc with changes not shown]", "notes": "Tested as VHH-Fc; order VHH-hinge-Fc inferred; also called S00S-NB1 48-13"}, "B2": {"name": "S008-NB148-30 (Fc fusion)", "chain": "EVQLVESGGGLVRAGGSLRLSCAASGTISSYDVVGWYRQAPGKQRELVALIGTDRWLNLGDFAKGRFTMSTDDAANTVDLEMNSLKPEDTAVYYCYTFQHTVGPRWGQGTQVTVSS[human IgG1 Fc with changes not shown]", "notes": "Tested as VHH-Fc; order VHH-hinge-Fc inferred"}, "B3": {"name": "S008-NB148-48 (Fc fusion)", "chain": "QLQLVESGGGLVQAGGSLKLSCVASGFTFSNYAMAWYRQAPGKQRELIASCSASCIWTNYGASVKGRFTMSLDNAKKTVYLQMDSLKPEDTAVYYCRNLDANYWGQGTQVTVSS[human IgG1 Fc with changes not shown]", "notes": "as for B2"}, "B4": {"name": "S008-NB148-69 (Fc fusion)", "chain": "EVQVVESGGGLVQAGGSLRLSCAASTITISSAGVSWYRQAPGKQRELVAIITRGGSTNYADSVKGRFTISRDNAKNTHYLQMYNLKPEDTGIYYCNVVPPTYWGQGTQVTVSS[human IgG1 Fc with changes not shown]", "notes": "as for B2"}, "B5": {"name": "S008-NB148-9 (Fc fusion)", "chain": "EVQLVESGGGLVQAGGSLRLSCAASGSTLSSYAMGWYRQAPGKQRELVAAISSGGGSTNYRDSVKGRFTISRDNAKNTVYLQMNSLKPEDTAVYYCKSTDYGSLFDSWGQGTQVTVSS[human IgG1 Fc with changes not shown]", "notes": "as for B2"}}, "key": {"[1]": {"target": "T1, human EGFR protein (human, UniProt P00533 part only)", "T1 construct": "also called human EGFR-His; human EGFR-ECD protein; not shown: His tag"}, "[2]": {"target": "T2, Her2 protein (human, UniProt P04626 part only)", "T2 construct": "Bought protein; also called human Her2 protein"}, "[3]": {"target": "T2, Her2 protein", "remark": "listed apart in the source"}, "[4]": {"target": "T2, Her2 protein", "remark": "listed apart in the source"}, "[5]": {"target": "T2, Her2 protein", "remark": "listed apart in the source"}, "[6]": {"target": "T2, Her2 protein", "remark": "listed apart in the source"}, "[7]": {"target": "T3, monkey EGFR protein (cynomolgus monkey, UniProt P55245 part only (rhesus entry))", "T3 construct": "Bought protein (SB 90285-C08H); also called cynomolgus monkey EGFR"}, "[8]": {"target": "T2, Her2 protein", "remark": "listed apart in the source"}, "[9]": {"target": "T2, Her2 protein", "remark": "listed apart in the source"}, "[10]": {"target": "T2, Her2 protein", "remark": "listed apart in the source"}, "[11]": {"target": "T1, human EGFR protein", "remark": "listed apart in the source"}, "[12]": {"target": "T4, human EGFRvIII-His tag protein (human, UniProt P00533 part only)", "T4 construct": "Made in HEK293E, purified on nickel column; also called human EGFRvIII protein; not shown: His tag"}}, "note": "Like-named read-outs stand apart in the source and are kept apart here.", "data": [{"binder": "B1", "values": [{"measurement": "EC80", "setting": "[1]", "result": 1.1, "unit": "µg/mL"}, {"measurement": "OD450", "setting": "[2]", "result": 0.13}, {"measurement": "OD450", "setting": "[3]", "result": 0.13}, {"measurement": "OD450", "setting": "[4]", "result": 0.13}, {"measurement": "OD450", "setting": "[5]", "result": 0.15}, {"measurement": "OD450", "setting": "[6]", "result": 0.14}, {"measurement": "Kd", "setting": "[7]", "result": 12.1, "unit": "nM"}, {"measurement": "koff", "setting": "[7]", "result": 0.000616, "unit": "s⁻¹"}, {"measurement": "kon", "setting": "[7]", "result": 50900, "unit": "M⁻¹ s⁻¹"}, {"measurement": "OD450", "setting": "[8]", "result": 0.2}, {"measurement": "OD450", "setting": "[9]", "result": 0.21}, {"measurement": "OD450", "setting": "[10]", "result": 0.15}, {"measurement": "Kd", "setting": "[11]", "result": 257, "unit": "nM"}, {"measurement": "koff", "setting": "[11]", "result": 0.0109, "unit": "s⁻¹"}, {"measurement": "kon", "setting": "[11]", "result": 42400, "unit": "M⁻¹ s⁻¹"}, {"measurement": "Kd", "setting": "[12]", "result": 50.5, "unit": "nM"}, {"measurement": "koff", "setting": "[12]", "result": 0.00246, "unit": "s⁻¹"}, {"measurement": "kon", "setting": "[12]", "result": 48600, "unit": "M⁻¹ s⁻¹"}]}, {"binder": "B2", "values": [{"measurement": "EC80", "setting": "[1]", "result": 21.1, "unit": "µg/mL"}, {"measurement": "OD450", "setting": "[2]", "result": 0.12}, {"measurement": "OD450", "setting": "[3]", "result": 0.09}, {"measurement": "OD450", "setting": "[4]", "result": 0.12}, {"measurement": "OD450", "setting": "[5]", "result": 0.1}, {"measurement": "OD450", "setting": "[6]", "result": 0.17}, {"measurement": "Kd", "setting": "[7]", "result": 2.58, "unit": "nM"}, {"measurement": "koff", "setting": "[7]", "result": 0.000185, "unit": "s⁻¹"}, {"measurement": "kon", "setting": "[7]", "result": 71700, "unit": "M⁻¹ s⁻¹"}, {"measurement": "OD450", "setting": "[8]", "result": 0.12}, {"measurement": "OD450", "setting": "[9]", "result": 0.15}, {"measurement": "OD450", "setting": "[10]", "result": 0.08}, {"measurement": "Kd", "setting": "[11]", "result": 5.41, "unit": "nM"}, {"measurement": "koff", "setting": "[11]", "result": 0.000317, "unit": "s⁻¹"}, {"measurement": "kon", "setting": "[11]", "result": 58600, "unit": "M⁻¹ s⁻¹"}, {"measurement": "Kd", "setting": "[12]", "result": 12.1, "unit": "nM"}, {"measurement": "koff", "setting": "[12]", "result": 3.46, "unit": "s⁻¹"}]}, {"binder": "B3", "values": [{"measurement": "EC80", "setting": "[1]", "result": 64.2, "unit": "µg/mL"}, {"measurement": "OD450", "setting": "[2]", "result": 0.06}, {"measurement": "OD450", "setting": "[3]", "result": 0.06}, {"measurement": "OD450", "setting": "[4]", "result": 0.08}, {"measurement": "OD450", "setting": "[5]", "result": 0.11}, {"measurement": "OD450", "setting": "[6]", "result": 0.16}, {"measurement": "Kd", "setting": "[7]", "result": 1, "unit": "nM"}, {"measurement": "kon", "setting": "[7]", "result": 95400, "unit": "M⁻¹ s⁻¹"}, {"measurement": "OD450", "setting": "[8]", "result": 0.11}, {"measurement": "OD450", "setting": "[9]", "result": 0.16}, {"measurement": "OD450", "setting": "[10]", "result": 0.11}, {"measurement": "Kd", "setting": "[11]", "result": 16.3, "unit": "nM"}, {"measurement": "koff", "setting": "[11]", "result": 9.55, "unit": "s⁻¹"}, {"measurement": "Kd", "setting": "[12]", "result": 23.4, "unit": "nM"}, {"measurement": "koff", "setting": "[12]", "result": 6.66, "unit": "s⁻¹"}, {"measurement": "kon", "setting": "[12]", "result": "2.85e+08", "unit": "M⁻¹ s⁻¹"}]}, {"binder": "B4", "values": [{"measurement": "EC80", "setting": "[1]", "result": 3.3, "unit": "µg/mL"}, {"measurement": "OD450", "setting": "[2]", "result": 0.11}, {"measurement": "OD450", "setting": "[3]", "result": 0.11}, {"measurement": "OD450", "setting": "[4]", "result": 0.12}, {"measurement": "OD450", "setting": "[5]", "result": 0.11}, {"measurement": "OD450", "setting": "[6]", "result": 0.18}, {"measurement": "Kd", "setting": "[7]", "result": 3.28, "unit": "nM"}, {"measurement": "koff", "setting": "[7]", "result": 0.000176, "unit": "s⁻¹"}, {"measurement": "kon", "setting": "[7]", "result": 53600, "unit": "M⁻¹ s⁻¹"}, {"measurement": "OD450", "setting": "[8]", "result": 0.09}, {"measurement": "OD450", "setting": "[9]", "result": 0.14}, {"measurement": "OD450", "setting": "[10]", "result": 0.08}, {"measurement": "Kd", "setting": "[11]", "result": 10.1, "unit": "nM"}, {"measurement": "koff", "setting": "[11]", "result": 0.000369, "unit": "s⁻¹"}, {"measurement": "kon", "setting": "[11]", "result": 36400, "unit": "M⁻¹ s⁻¹"}, {"measurement": "Kd", "setting": "[12]", "result": 2.62, "unit": "nM"}, {"measurement": "koff", "setting": "[12]", "result": 0.000165, "unit": "s⁻¹"}, {"measurement": "kon", "setting": "[12]", "result": 63100, "unit": "M⁻¹ s⁻¹"}]}, {"binder": "B5", "values": [{"measurement": "EC80", "setting": "[1]", "result": 7.9, "unit": "µg/mL"}, {"measurement": "OD450", "setting": "[2]", "result": 0.1}, {"measurement": "OD450", "setting": "[3]", "result": 0.11}, {"measurement": "OD450", "setting": "[4]", "result": 0.08}, {"measurement": "OD450", "setting": "[5]", "result": 0.12}, {"measurement": "OD450", "setting": "[6]", "result": 0.15}, {"measurement": "Kd", "setting": "[7]", "result": 7.54, "unit": "nM"}, {"measurement": "koff", "setting": "[7]", "result": 0.000659, "unit": "s⁻¹"}, {"measurement": "kon", "setting": "[7]", "result": 87400, "unit": "M⁻¹ s⁻¹"}, {"measurement": "OD450", "setting": "[8]", "result": 0.12}, {"measurement": "OD450", "setting": "[9]", "result": 0.14}, {"measurement": "OD450", "setting": "[10]", "result": 0.09}, {"measurement": "Kd", "setting": "[11]", "result": 472, "unit": "nM"}, {"measurement": "koff", "setting": "[11]", "result": 0.0141, "unit": "s⁻¹"}, {"measurement": "kon", "setting": "[11]", "result": 29900, "unit": "M⁻¹ s⁻¹"}, {"measurement": "Kd", "setting": "[12]", "result": 56.4, "unit": "nM"}, {"measurement": "koff", "setting": "[12]", "result": 3.25, "unit": "s⁻¹"}, {"measurement": "kon", "setting": "[12]", "result": "5.76e+07", "unit": "M⁻¹ s⁻¹"}]}]}
